For 4 molecules, Kd results are on record in patent US20220275048A1 (PHARCHOICE THERAPEUTICS, published 2022).

What all share (assay): SPR, Biacore T100
For one assay, the target named is T1, human CD155 (human, UniProt P15151 21-343, limits assumed).
T1 construct: The construct used in the Biacore assay is not described
T1 sequence (looked up): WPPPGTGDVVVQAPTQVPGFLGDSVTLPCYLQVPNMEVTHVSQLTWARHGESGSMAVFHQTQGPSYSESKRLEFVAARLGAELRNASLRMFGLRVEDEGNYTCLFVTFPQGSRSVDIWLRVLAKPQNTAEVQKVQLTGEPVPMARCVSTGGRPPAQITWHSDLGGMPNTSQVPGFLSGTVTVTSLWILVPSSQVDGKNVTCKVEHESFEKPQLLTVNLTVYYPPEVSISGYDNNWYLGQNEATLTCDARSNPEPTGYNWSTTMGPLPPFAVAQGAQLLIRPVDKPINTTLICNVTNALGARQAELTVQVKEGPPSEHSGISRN
From the text: (§1) Biacore T100 (GE Healthcare) was used to detect the affinity of each immunoadhesin according to the method in the literature (Bruhns P. et al. Blood, 2009, 113(16): 3716-3725).

The target in a further assay is T2, mouse CD155 (mouse).
T2 construct: The construct used in the Biacore assay is not described
Source text: as §1

A further assay has as its target T3, anti-IL 10.
T3 construct: not described further
Source text: as §1

In another assay the target is B7.
Source text: as §1

B1: TIGIT-Fc-wt (Fc fusion)
chain: MMTGTIETTGNISAEKGGSIILQCHLSSTTAQVTQVNWEQQDQLLAICNADLGWHISPSFKDRVAPGPGLGLTLQSLTVNDTGEYFCIYHTYPDGTYTGRIFLEVLESSVAEHGARFQIP[sequence of human IgG1 Fc not given]
notes: also called human TIGIT immunoadhesin
For orientation: Kd means a measure of binding affinity in units of concentration. Higher therefore signals lower affinity. B1: the results for the Kd in the assay with human CD155 and with mouse CD155 were 1.55 nM and 2.07 nM, respectively.

B2: TIGIT-Fc-LALA-PG (Fc fusion)
chain: MMTGTIETTGNISAEKGGSIILQCHLSSTTAQVTQVNWEQQDQLLAICNADLGWHISPSFKDRVAPGPGLGLTLQSLTVNDTGEYFCIYHTYPDGTYTGRIFLEVLESSVAEHGARFQIP[sequence of human IgG1 Fc with changes not given]
notes: also called LALA-PG variant of human TIGIT immunoadhesin
As for B2, the Kd came to 1.84 nM with human CD155 and 2.15 nM in the assay with mouse CD155.

B3: TIGIT/IL10-Fc (Fc fusion)
chain 1: MMTGTIETTGNISAEKGGSIILQCHLSSTTAQVTQVNWEQQDQLLAICNADLGWHISPSFKDRVAPGPGLGLTLQSLTVNDTGEYFCIYHTYPDGTYTGRIFLEVLESSVAEHGARFQIP[sequence of human IgG1 Fc with changes not given]
chain 2: SPGQGTQSENSCTHFPGNLPNMLRDLRDAFSRVKTFFQMKDQLDNLLLKESLLEDFKGYLGCQALSEMIQFYLEEVMPQAENQDPDIKAHVNSLGENLKTLRLRLRRCHRFLPCENKSKAVEQVKNAFNKLQEKGIYKAMSEFDIFINYIEAYMTMKIRN[sequence of human IgG1 Fc with changes not given]
Turning to B3, the Kd with human CD155 stood at 2.41 nM; in the assay with mouse CD155, 3.21 nM; with anti-IL 10 it was 0.91 nM.

B4: TIGIT/CTLA4-Fc (Fc fusion)
chain 1: MMTGTIETTGNISAEKGGSIILQCHLSSTTAQVTQVNWEQQDQLLAICNADLGWHISPSFKDRVAPGPGLGLTLQSLTVNDTGEYFCIYHTYPDGTYTGRIFLEVLESSVAEHGARFQIP[sequence of human IgG1 Fc with changes not given]
chain 2: [sequence of about 350 residues with a human IgG1 Fc not given]
On to B4, for which the Kd turned out to be 2.39 nM with human CD155, 3.55 nM in the assay with mouse CD155 and 2.51 nM with B7.
